{"source": "PubChem BioAssay AID1240", "about": "(Sanford-Burnham Center for Chemical Genomics, 2008)", "note": "The campaign covered roughly 50,000 compounds. About 800 (1.6%) showed an effect of 50% or more. The list shows a part of the results.", "data": [{"molecular_target": "Bcl-2-like protein 10 (Homo sapiens) (UniProt Q9HD36)", "sequence (Q9HD36 whole entry, looked up)": "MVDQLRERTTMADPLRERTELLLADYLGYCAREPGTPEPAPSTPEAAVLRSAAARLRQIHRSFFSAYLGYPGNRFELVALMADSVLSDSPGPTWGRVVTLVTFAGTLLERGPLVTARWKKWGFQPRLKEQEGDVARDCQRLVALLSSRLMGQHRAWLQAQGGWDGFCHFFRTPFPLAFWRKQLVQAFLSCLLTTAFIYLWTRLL", "assay": "TR3 peptide-Bcl-B binding displacers, biochemical primary FP assay, phenotype converters (AID 1240);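 further: 0% = Bcl-B with tracer peptide and DMSO and 100% = tracer peptide lacking Bcl-B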", "conditions": "GST-Bcl-B / FITC-TR3 peptide fluorescence polarization; stronger effect = higher value; compound at 3.75 mg/L", "units": {"displacement": "%"}, "values": [{"smiles": "CC1(C)CC(=O)C2=C(C1)NC1=C(C(=O)CC(C)(C)C1)C2c1ccccc1OCc1ccccc1", "displacement": -0.4}, {"smiles": "N#CCCN1CCN(c2cc(N3CCOCC3)c(F)cc2[N+](=O)[O-])CC1", "displacement": -11}, {"smiles": "Cc1csc(/C(C#N)=C/c2sccc2C)n1", "displacement": -12}, {"smiles": "COc1ccc(C(=O)Nc2ccc3oc(-c4ccccc4Cl)nc3c2)cc1Br", "displacement": 1.2}, {"smiles": "CC(=O)NNc1nc(-c2ccccc2)c2cc(Cl)ccc2n1", "displacement": -7.4}, {"smiles": "Cc1ccc(N(Cc2ccc(C(=O)Nc3ccc(C)c(Cl)c3)cc2)S(C)(=O)=O)cc1C", "displacement": -5.2}, {"smiles": "CC(CCC(=O)Nc1ccc(F)cc1)CC(=O)Nc1ccc(F)cc1", "note": "(stereo unspecified)", "displacement": 2.7}, {"smiles": "Cc1cccc(N2C(=O)/C(=C/c3ccc(Br)cc3)SC2=S)c1C", "displacement": 9.2}, {"smiles": "COC(=O)CN(c1c(C)cccc1C)S(C)(=O)=O", "displacement": 3.3}, {"smiles": "Clc1ccccc1CSc1nnnn1-c1ccccc1", "displacement": 9.2}, {"smiles": "COC(=O)C1=C(C)NC(=S)N(C(C)=O)C1c1ccc(Cl)cc1", "note": "(stereo unspecified)", "displacement": 4.9}, {"smiles": "Cc1cccc(NC(=O)C(O)C(O)C(=O)Nc2cccc(C)c2)c1", "note": "(stereo unspecified)", "displacement": -1}, {"smiles": "c1ccc(Cc2nc(-c3ccncc3)no2)cc1", "displacement": 5.5}, {"smiles": "Cc1ccc(C2CC(C(F)(F)F)n3nc(C(=O)NCc4cccs4)cc3N2)cc1", "note": "(stereo unspecified)", "displacement": 8.3}, {"smiles": "COc1ccc(N=Cc2sccc2C)c([N+](=O)[O-])c1", "displacement": 8.1}, {"smiles": "CCCC1=C(C(=O)OCC)C(c2ccc(OC)c(OC)c2)NC(=O)N1", "note": "(stereo unspecified)", "displacement": -7.7}, {"smiles": "COc1cccc(/C=C2\\SC(=S)N(C3CCCCC3)C2=O)c1O", "displacement": -3.3}, {"smiles": "COCCCN1C(=O)/C(=C\\c2ccc(Br)cc2)C(C(=O)OC)=C1C", "displacement": -14.1}, {"smiles": "O=C1CC(c2ccc(F)c(Br)c2)c2ccc3ccccc3c2N1", "note": "(stereo unspecified)", "displacement": -10.6}, {"smiles": "CCC(Sc1nc2ccccc2s1)C(=O)Nc1cccc2ccccc12", "note": "(stereo unspecified)", "displacement": -2.9}, {"smiles": "C/C(=N\\N1C(=O)CN(Cc2ccccc2)C1c1ccc(Br)cc1)c1ccccc1", "note": "(stereo unspecified)", "displacement": -4.2}, {"smiles": "O=c1c2c3c(sc2n2c(=S)[nH]nc2n1-c1ccccc1)CCCCC3", "displacement": -7}, {"smiles": "Oc1c(Br)cc(/C=N/Nc2nnc3c(n2)[nH]c2ccccc23)c(Br)c1O", "displacement": 48.1}, {"smiles": "CC1=C(C(=O)Nc2cccc(Cl)c2C)C(c2ccc([N+](=O)[O-])cc2)NC(=S)N1", "note": "(stereo unspecified)", "displacement": 13.1}, {"smiles": "COCCNC(=O)c1ccc(NC(C)=O)cc1", "displacement": 9.6}, {"smiles": "O=C(Nc1ccc(Cl)c(-c2nc3ccccc3o2)c1)c1ccc2ccccc2c1", "displacement": -23.4}, {"smiles": "Cc1cc(Cl)ccc1NC(=O)c1cccc(I)c1", "displacement": 9.4}, {"smiles": "CCOC(=O)C(C)Oc1cc2oc(=O)cc(-c3ccccc3)c2cc1CC", "note": "(stereo unspecified)", "displacement": 11}, {"smiles": "O=C(c1ccc(Br)cc1)N1CCN(c2ccc(F)cc2)CC1", "displacement": -8.7}, {"smiles": "CCCOc1ccc2c(C)cc(=O)oc2c1", "displacement": 1.2}, {"smiles": "O=C1c2cccc3cccc(c23)C(=O)N1CCS(=O)(=O)OCC(F)(F)F", "displacement": 7.8}, {"smiles": "Cc1ccc(-c2noc(C3CCCCC3)n2)cc1", "displacement": 11.9}, {"smiles": "O=C(COc1ccc(Cl)cc1)Nc1ccccc1[N+](=O)[O-]", "displacement": 20}, {"smiles": "Cc1ccc(C)c(NC(=O)CSc2ccccn2)c1", "displacement": 15.7}, {"smiles": "O=C(NCCOC(=O)c1ccccc1)c1ccc([N+](=O)[O-])cc1", "displacement": 11}, {"smiles": "COC(=O)C1=C(C)NC(=O)CC1c1cccc(OC)c1OC", "note": "(stereo unspecified)", "displacement": 9.9}, {"smiles": "CC1=NN(c2ccccc2)C(=O)/C1=C/c1cc(C)n(-c2cccnc2)c1C", "displacement": -3.2}, {"smiles": "COc1ccc(NC(=O)Cc2nc3ccccc3[nH]2)cc1", "displacement": -6.7}, {"smiles": "C1=CCC(/C=N/N=C(/c2ccccc2)C23CN4CN(CN(C4)C2)C3)CC1", "note": "(stereo unspecified)", "displacement": 0.9}, {"smiles": "O=c1c2c(nc3cc(-c4cccs4)[nH]n13)CCC2", "displacement": 5.7}, {"smiles": "Cc1cccc(N2C(=O)/C(=C/c3cc(C)n(C)c3C)C(=O)NC2=S)c1C", "displacement": 111}, {"smiles": "Cc1cc(C)c(C(=O)/C(=C/c2ccccc2)c2ccccc2)c(=O)[nH]1", "displacement": 6.6}, {"smiles": "COc1ccc(S(=O)(=O)Nc2ccccc2C(F)(F)F)cc1", "displacement": -6.4}, {"smiles": "CCOc1ccc(C(=O)Nc2cc(C)ccn2)cc1Br", "displacement": -1.9}, {"smiles": "COC(=O)C1=C(C)NC(=O)NC1c1ccc(OC)c(OC)c1OC", "note": "(stereo unspecified)", "displacement": 8.5}, {"smiles": "Cc1ccc(CC2CC(=O)N(c3ccc(F)cc3)C2=O)cc1", "note": "(stereo unspecified)", "displacement": 11}, {"smiles": "CCC(=O)N1N=C2c3ccc(OC)cc3CCC2C1c1ccc(N(C)C)cc1", "note": "(stereo unspecified)", "displacement": 9.1}, {"smiles": "CCCOc1cccc(C(=O)Nc2ccccc2C(F)(F)F)c1", "displacement": -5.3}, {"smiles": "COC(=O)c1ccccc1NC(=O)c1ccc(Cl)c([N+](=O)[O-])c1", "displacement": 9.4}, {"smiles": "O=c1oc(-c2ccccc2Cl)nc2sc3c(c12)CCCCC3", "displacement": 15}, {"smiles": "COc1ccc(NC(=O)/C(C#N)=C/c2cn(Cc3ccccc3C#N)c3ccccc23)cc1", "displacement": 3.2}, {"smiles": "COC(=O)c1ccc(C(=O)OC)c(NC(=O)c2ccccc2OC)c1", "displacement": -9.5}, {"smiles": "O=C(NNC(=O)C1CCCO1)c1cccc(F)c1", "note": "(stereo unspecified)", "displacement": -18.7}, {"smiles": "Cc1ccc2ccc3cccc(S(=O)(=O)O)c3c2n1", "displacement": 6.3}, {"smiles": "CN1C(=O)/C(=C/C=C/c2ccco2)SC1=S", "displacement": 23.2}, {"smiles": "O=C1C(=O)c2ccccc2C(O)=C1[N+](=O)[O-]", "displacement": 16.8}, {"smiles": "O=C(COc1cc(Cl)ccc1Cl)Nc1ccc2c(c1)OCCO2", "displacement": 0.3}, {"smiles": "C=CCn1c(=N)n(CC(O)c2ccc(OCC)cc2)c2ccccc21", "note": "(stereo unspecified)", "displacement": -9.5}, {"smiles": "CC(C)(C)c1cc(C2=C(Cl)C(=O)c3ccccc3C2=O)cc(C(C)(C)C)c1O", "displacement": 6.9}, {"smiles": "O=C(Cc1cccc2ccccc12)N/N=C/c1cc(I)cc(I)c1O", "displacement": 7.8}, {"smiles": "COc1nccnc1NS(=O)(=O)c1ccc(NC(=O)c2ccc(Br)cc2)cc1", "displacement": -0.3}, {"smiles": "CS(=O)(=O)NCCNc1ccc([N+](=O)[O-])cc1", "displacement": 6.3}, {"smiles": "CCOc1ccccc1C(=O)Nc1cc(Cl)ccc1C", "displacement": -1.9}, {"smiles": "CCCC(C)NS(=O)(=O)c1ccccc1[N+](=O)[O-]", "note": "(stereo unspecified)", "displacement": 3}, {"smiles": "COc1ccc(Nc2cc(C)nc3c2ccc2ccccc23)cc1OC", "displacement": -5.1}, {"smiles": "O=C1NN(c2ccc(Cl)c(Cl)c2)C(=O)/C1=C/c1ccc2c(c1)OCO2", "displacement": -4.4}, {"smiles": "O=C(Cc1ccccc1)NC(NC(=S)Nc1cc(Cl)ccc1Cl)C(Cl)(Cl)Cl", "note": "(stereo unspecified)", "displacement": 15.1}, {"smiles": "COc1ccc(OCCCCOc2ccc(Cl)c(C)c2)cc1", "displacement": 17.4}, {"smiles": "O=C(NCCO)c1ccc(-c2nnc(N3CCOCC3)c3ccccc23)cc1", "displacement": 2.8}, {"smiles": "Cc1ccc(Cl)cc1NC(=O)C1CC(=O)N(c2cccc([N+](=O)[O-])c2)C1", "note": "(stereo unspecified)", "displacement": -16.2}, {"smiles": "CCOc1ccc(Nc2ncnc3c2cnn3-c2ccccc2)cc1", "displacement": -2.1}, {"smiles": "CC(=O)C1=C(Nc2ccc(Br)cc2)CC(C)(O)C(C(C)=O)C1c1ccc([N+](=O)[O-])cc1", "note": "(stereo unspecified)", "displacement": -12.7}, {"smiles": "CCN(CC)CCSc1nc2sc3c(c2c(=O)n1-c1ccc(C)cc1)CCCC3", "displacement": -6.5}, {"smiles": "Cc1ccc(S(=O)(=O)NCCOc2ccccc2)cc1[N+](=O)[O-]", "displacement": 12.5}, {"smiles": "CS(=O)(=O)N1CCN(Cc2ccccn2)CC1", "displacement": -24.7}, {"smiles": "Nc1ccc(C(=O)Nc2cccc3ccccc23)cc1", "displacement": -4.6}, {"smiles": "COc1ccc(/C=C2\\SC(=O)N(CCC(=O)Nc3ccccc3)C2=O)cc1OC", "displacement": 40.2}, {"smiles": "CC1(C)Cc2c(sc3[nH]c(=O)n(-c4ccccc4)c(=O)c23)CO1", "displacement": -11.2}, {"smiles": "COc1ccc(N(CC(=O)Nc2ccc3ccccc3c2)S(=O)(=O)c2ccccc2)cc1", "displacement": 11.2}, {"smiles": "CCOC(=O)C1C(=O)C=C(c2ccc(C)cc2)CC1c1ccccc1", "note": "(stereo unspecified)", "displacement": -9.4}, {"smiles": "Cc1ccc(N=Cc2c(O)ccc3ccccc23)nc1", "displacement": 38.1}, {"smiles": "Cc1ccccc1NC(=O)/C(=C\\c1ccccc1Cl)NC(=O)c1ccccc1", "displacement": 0.8}, {"smiles": "Cc1ccc(S(=O)(=O)N2CCN(CCNC(=O)C(=O)Nc3ccc(Cl)cc3)CC2)cc1", "displacement": 8}, {"smiles": "CCOC(=O)c1sc(NC(=O)c2ccncc2)nc1C", "displacement": 4.1}, {"smiles": "Cc1ccc(/C=C/C(=O)Nc2ccc(F)cc2)o1", "displacement": 7.5}, {"smiles": "c1ccc(-n2c(SCc3ccncc3)nnc2-c2ccco2)cc1", "displacement": -5.6}, {"smiles": "CCc1cc(C)cc(OCCOc2cccc(/C=C3/SC(=S)N(C)C3=O)c2)c1", "displacement": 15.9}, {"smiles": "COc1ccc(-n2nc3cc(C)c(NC(=O)COc4ccc(C)cc4)cc3n2)cc1", "displacement": 0.8}, {"smiles": "CCNc1cc(Nc2ccccc2)c2c3c(onc13)-c1ccccc1C2=O", "displacement": 12.6}, {"smiles": "COc1ccc(Cl)cc1C(=O)Nc1cc(C(F)(F)F)ccc1Cl", "displacement": -8.5}, {"smiles": "O=C(Nc1cc(-c2ccc(F)cc2)[nH]n1)c1ccccc1[N+](=O)[O-]", "displacement": 11.5}, {"smiles": "COc1ccc(CNCc2ccc(F)cc2)cc1OC", "displacement": 1.2}, {"smiles": "O=C(Nc1ccc(Cl)c(Cl)c1)Nc1nnc(-c2ccccc2F)s1", "displacement": 13.4}, {"smiles": "COc1ccc(-c2cc3nc[nH]c(=O)c3s2)cc1", "displacement": -9.8}, {"smiles": "CC(NCc1ccc2c(c1)OCO2)C12CC3CC(CC(C3)C1)C2", "note": "(stereo unspecified)", "displacement": -13.9}, {"smiles": "COc1ccc(-n2nc3cc(C)c(NC(=O)c4ccc(OC)c(OC)c4)cc3n2)cc1", "displacement": 2.2}, {"smiles": "COC(=O)c1cc(C(=O)Nc2ncccc2C)cc([N+](=O)[O-])c1", "displacement": 55.2}, {"smiles": "COC(=O)CCN1C(=O)/C(=C\\c2ccc([N+](=O)[O-])cc2)SC1=S", "displacement": -5.7}, {"smiles": "CC1(C)CNC(=O)c2sc(N)nc2C1", "displacement": -0.7}, {"smiles": "O=C1C(=O)N(CC2CCCO2)C(c2ccc(F)cc2)/C1=C(/O)c1ccccc1", "note": "(stereo unspecified)", "displacement": 17.1}, {"smiles": "Cc1nc2cc(-c3ccc(F)cc3)[nH]n2c(=O)c1C", "displacement": -7.3}, {"smiles": "Cc1ccc([N+](=O)[O-])cc1-c1ccc(/C=C2/C(=O)NN(c3ccc(Cl)cc3)C2=O)o1", "displacement": 23.7}, {"smiles": "COc1ccc(C(=S)N2CCN(c3ccccc3)CC2)cc1", "displacement": 9.6}, {"smiles": "O=C(c1ccc(C#CC2(O)CCCCC2)cc1)N1CCN(c2ccc(F)cc2)CC1", "displacement": 4.5}, {"smiles": "CCOc1ccc(NC(=O)c2ccc(C)c([N+](=O)[O-])c2)cc1", "displacement": 12.7}, {"smiles": "Cc1ccc(CNC(=O)C(=O)Nc2cccc3ccccc23)cc1", "displacement": 5.6}, {"smiles": "COc1ccc(Cl)cc1NC(=O)c1cc(-c2cccs2)nc2ccccc12", "displacement": 8.5}, {"smiles": "COc1ccc(C2CC(c3ccc(Br)cc3)=NN2C(=O)CCC(=O)O)cc1", "note": "(stereo unspecified)", "displacement": -13.5}, {"smiles": "Cc1cc(C)nc(SCC(=O)N/N=C/c2ccc([N+](=O)[O-])cc2)n1", "displacement": 11.5}, {"smiles": "O=C(CSCc1ccc(Cl)cc1)N/N=C/c1ccc(Sc2cccc3cccnc23)o1", "displacement": 25.1}, {"smiles": "O=C1CC(N2CCC(Cc3ccccc3)CC2)C(=O)N1c1cccc(Br)c1", "note": "(stereo unspecified)", "displacement": -2.6}]}]}
